In all, about 370,000 compounds went through this assay and about 150 (0.041%) were called active. This list was built around the results that the source calls inconclusive (neither active nor inactive); the mix of calls is not that of the screen. Calls come from the whole dose curve; as a rule, active = well fitted inhibition curve with a large enough effect; inconclusive = small, poorly fitted or top-dose-only effect; inactive = flat fitted curve, though single readings scatter. Potencies of inconclusive entries are left out as doubtful fits.
molecular target: Beta-lactamase (Escherichia coli (strain K12)) (UniProt P00811); test: qHTS Inhibitors of AmpC Beta-Lactamase (assay with detergent); conditions: AmpC hydrolysis of nitrocefin, absorbance 480 nm, 0.01% Triton; series mostly up to 114 µM; note: nearly all actives have a fitted effect of over 25% in size
UniProt P00811, sequence (P00811 whole entry, looked up): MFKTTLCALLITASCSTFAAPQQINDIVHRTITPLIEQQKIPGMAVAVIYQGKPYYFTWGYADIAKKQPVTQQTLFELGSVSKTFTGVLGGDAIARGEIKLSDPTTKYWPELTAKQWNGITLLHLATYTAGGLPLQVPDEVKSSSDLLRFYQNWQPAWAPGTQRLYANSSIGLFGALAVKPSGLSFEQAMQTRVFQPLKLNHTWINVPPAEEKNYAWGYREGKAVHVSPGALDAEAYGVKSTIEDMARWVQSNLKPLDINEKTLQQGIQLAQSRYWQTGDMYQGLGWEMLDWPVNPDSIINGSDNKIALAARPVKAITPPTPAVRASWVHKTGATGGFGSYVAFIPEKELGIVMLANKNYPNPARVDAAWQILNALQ
In short: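 AmpC (5.3 nM in the dispensed reagent) in 20 mM phosphate pH 7.0 with 0.01% (detergent screen) or 0.0001% Triton X-100 was preincubated with compounds for 15 min at room temperature. Nitrocefin was then added from an 800 uM solution, and hydrolysis was followed at 480 nm.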
Potency is the fitted concentration of half-maximal effect; tags give direction and shape of the fitted curve.

Compound	Potency
CS(=O)(=O)c1cccc(-c2nnc(NC(=O)c3ccc4ncsc4c3)o2)c1	inconclusive [inhibitor, full curve, poor fit]
CC12CCC(C(=O)NCCc3ccccc3)(OC1=O)C2(C)C (configuration not stated)	inconclusive [inhibitor, single point]
COc1ccc(N2CCN(c3nc(NCCO)nc(N4CCOCC4)n3)CC2)cc1	inconclusive [inhibitor, full curve]
CC(C)COc1ccc(-c2nnn(CC(=O)N3CCCC3)n2)cc1	inconclusive [inhibitor, partial curve]
Cc1ccc(CCNC(=O)c2cc(S(=O)(=O)N3CCOCC3)cn2C)cc1	inactive
COc1ccc(C(=O)N=c2c(C#N)cc3c(=O)n4cccc(C)c4nc3n2Cc2ccco2)cc1	inconclusive [inhibitor, full curve, poor fit]
CCCOc1ccc(Cn2ccnc2)cc1[N+](=O)[O-]	inconclusive [inhibitor, partial curve]
COc1ccccc1N1CCN(CC(O)COc2cccc3ccccc23)CC1 (configuration not stated)	inconclusive [inhibitor, full curve, poor fit]
COC(=O)CSc1nc2cc(C)cc(C)c2cc1C#N	inconclusive [inhibitor, partial curve, poor fit]
C=CCNC(=S)Nc1ccc2nc(C)oc2c1	inconclusive [inhibitor, full curve, poor fit]
COc1ccc(Nc2cc(C)nc(-n3nc(C)cc3C)n2)cc1	inconclusive [inhibitor, full curve, poor fit]
CSc1nc(NCc2ccco2)c2ccccc2n1	inconclusive [inhibitor, full curve, poor fit]
O=C(NN1CCOCC1)c1ccc([N+](=O)[O-])cc1	inconclusive [inhibitor, partial curve, poor fit]
CCCCC(=O)Nc1ccc2c(c1)nc1n2CCOC1	inconclusive [inhibitor, full curve]
COc1cc(CC(=O)Nc2nc(-c3ccccc3)c(C(C)=O)s2)cc(OC)c1OC	inactive
COc1ccc(C2(CNC(=O)c3ccc(OC)c([N+](=O)[O-])c3)CCOCC2)cc1OC	inconclusive [inhibitor, full curve]
O=C(CN(C(=O)CCC(=O)Nc1ccccn1)c1ccc2c(c1)OCO2)NCc1ccco1	inconclusive [inhibitor, partial curve, poor fit]
Cc1ccc(CNC(=O)CCCn2nc(C)n3c(cc4sccc43)c2=O)cc1	inactive
COc1ccc(C2CC(=O)C=C(NCCC(C)C)C2)cc1 (configuration not stated)	inconclusive [inhibitor, partial curve, poor fit]
COc1cccc(C(=O)c2cn(CC(=O)Nc3ccc4c(c3)OCCO4)c3nc(C)ccc3c2=O)c1	inconclusive [inhibitor, single point]
O=C(CCc1nc(-c2ccccc2F)no1)NCCN1CCN(Cc2ccccc2)CC1	inconclusive [inhibitor, partial curve]

Compound	Potency
Cc1cccc(N2CCN(C(=O)C3CCC(=O)N(C4CC4)C3)CC2)c1C (configuration not stated)	inactive
CCN(CC(=O)NCc1ccc(Cl)cc1)C(=O)CCOc1ccc(C)cc1	inconclusive [inhibitor, full curve]
Cc1ccc(-c2c3c(=O)n(C)c(=O)n(C)c3cn2Cc2ccccn2)cc1	inconclusive [inhibitor, full curve, poor fit]
c1ccc2c(c1)oc1c(N3CCOCC3)ncnc12	inactive
COc1cc(CNC(=O)c2ccc3oc(C(C)C)nc3c2)cc(OC)c1	inactive
COc1ccc(-n2nnc3c(=O)n(CC(=O)N4CCC(Cc5ccccc5)CC4)cnc32)cc1	inconclusive [inhibitor, partial curve, poor fit]
CC(O)CNc1nc2ccccc2n1CC(=O)NCC(F)(F)F (configuration not stated)	inconclusive [inhibitor, partial curve]
CNC(=O)NC(=O)CSc1ccc(NC(C)=O)cc1	inconclusive [inhibitor, full curve, poor fit]
O=C(c1cc(N2C(=O)C3C4CCC(C4)C3C2=O)ccc1Cl)N1CCN(c2ccc(F)cc2)CC1 (configuration not stated)	inconclusive [inhibitor, full curve, poor fit]
O=C(COC(=O)c1ccc(-c2cnc3ccccc3n2)cc1)c1ccccc1	inconclusive [inhibitor, single point]
O=C(NC1CCCc2ccccc21)c1ccc([N+](=O)[O-])cc1 (configuration not stated)	inconclusive [inhibitor, full curve]
CCOC(=O)C1CN(S(=O)(=O)c2ccc(OC)cc2)c2cc(S(=O)(=O)CC)ccc2O1 (configuration not stated)	inconclusive [inhibitor, full curve, poor fit]
CCCn1nnnc1NC(=O)c1ccc2ccccc2c1	inactive
COCCN(C(=O)COC(=O)/C=C/c1ccc(C(F)(F)F)cc1)c1c(N)n(Cc2ccccc2)c(=O)[nH]c1=O	inactive
COc1ccc(CNC(=O)CN(C(=O)c2csnn2)c2cccc(F)c2)cc1	inconclusive [inhibitor, partial curve]
O=C(CCn1ccnc1)Nc1cc(Cl)ccc1O	inconclusive [inhibitor, full curve, poor fit]
CC(C)(C)C(=O)Nc1nnc(CSCc2ccccc2F)s1	inactive
CCOC(=O)C1CCCN(C(=O)Cn2nc(C)n3nc(-c4ccccc4)cc3c2=O)C1 (configuration not stated)	inactive
CCOc1cc(C)c(Cl)cc1S(=O)(=O)n1nnc2ccccc21	inconclusive [inhibitor, full curve]
CCOC(=O)C1CCCN(S(=O)(=O)c2cc(Br)cc3c2N(C(=O)CC)CC3)C1 (configuration not stated)	inactive
CC1CCCN(C(=O)NC2CC(=O)N(c3ccc4c(c3)OCCO4)C2)C1 (configuration not stated)	inconclusive [inhibitor, full curve, poor fit]

From PubChem BioAssay AID485294 (National Center for Advancing Translational Sciences (NCATS), 2010)
